In PubChem BioAssay AID624173 (National Center for Advancing Translational Sciences (NCATS), 2012):
Among all 410,000 compounds or so, about 490 (0.12%) were called active. Inconclusive means that the source gave no clear call. Such entries were picked first, then a sample of the others. The call rests on the fitted dose curve; in most records, active means well fitted inhibition curve with a large enough effect; inconclusive means small, poorly fitted or top-dose-only effect; inactive means flat fitted curve, though single readings scatter. Where the call is inconclusive, the potency comes from a doubtful curve fit.
Further: nearly all actives have a fitted effect of over 50% in size.
Potency means the concentration at half of the fitted maximal effect; tags describe the fitted curve by direction and shape.

Each compound was assayed against pyruvate kinase (Trypanosoma brucei) (UniProt Q57TT1) (assay: qHTS of Trypanosoma Brucei Inhibitors). Details: TbPYK enzyme, Kinase-Glo Plus ATP luminescence, 45 min; series mostly up to 76.8 µM.
In short: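 Luminescent Kinase-Glo Plus end-point after 45 min room-temperature reaction of T. brucei pyruvate kinase started with 130 uM ADP (final). Buffer TEA 50 mM pH 7.2 with KCl, MgCl2, BSA, Tween-20; titration-based qHTS with fitted concentration-effect curves.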
With `CCOC(=O)N1CCN(C(=O)CSCC(=O)Nc2nc(-c3ccc(OC)cc3)cs2)CC1` the Potency was “inactive”. In the case of `O=C(COC(=O)c1ccccc1)c1ccc2c(c1)OCCO2`, the Potency is reported as inconclusive: 31.6 µM [inhibitor, partial curve]. With `O=c1c2ccccc2sn1-c1cccc(Cl)c1` the Potency was active: 7.08 µM. `OCCN1CCN(CC(O)COCCOc2ccc(Br)cc2)CC1` (stereo not drawn) was tested, and the Potency was inconclusive: 28.2 µM [inhibitor, partial curve]. In the case of `c1ccc2nc3c(ccc4ccccc43)cc2c1`, the Potency is reported as “inactive”. For `Cc1cccc(OCc2n[nH]c(=S)n2Cc2ccccc2)c1`, the Potency was inconclusive: 4.47 µM [inhibitor, full curve, poor fit]. With `CCC(=O)N1CCCc2cc(S(=O)(=O)N3CCCc4ccccc43)ccc21` the Potency was inconclusive: 35.5 µM [inhibitor, partial curve]. `O=C(c1cccs1)N1CCn2c1nc1ccccc12` was tested, and the Potency was “inactive”. With `N#C/C(=C\c1ccc(N2CCOCC2)o1)C(=O)NCC1CCCO1` (stereo not drawn) the Potency was “inactive”. For `COC(=O)[C@@]12CCCN1[C@H](c1ccc(-c3ccc(OC)cc3)cc1)[C@@H]1C(=O)N(C)C(=O)[C@@H]12`, the Potency was “inactive”. `O=C(O)c1ccc(-n2c(-c3cc(C4CC4)[nH]n3)n[nH]c2=S)cc1` was tested, and the Potency was inconclusive: 28.2 µM [inhibitor, partial curve, poor fit]. For `CC(/C=N/n1c(-c2cccnc2)n[nH]c1=S)=C\c1ccco1`, the Potency was inconclusive: 2.51 µM [inhibitor, full curve]. For `CCCCCCCCN1C(=O)[C@H](CC(=O)N2CCSCC2)C[C@@]2(C(=O)OC)CCCCC=C12`, the Potency was inconclusive: 35.5 µM [inhibitor, single point]. For `O=[N+]([O-])c1ccc(O)c(/C=N/n2c(-c3ccccc3)n[nH]c2=S)c1`, the Potency was inconclusive: 8.91 µM [inhibitor, partial curve, poor fit]. In the case of `CCCOc1ccc(/C=C/C(=O)Nc2sc(C)c(C)c2C(=O)OCC)cc1OC`, the Potency is reported as inconclusive: 15.8 µM [inhibitor, partial curve]. For `CCOC(=O)C1(C)/C(=N/Nc2ccccc2OC)C(=O)C(=O)N1c1ccccc1` (stereo not drawn), the Potency was inconclusive: 31.6 µM [inhibitor, single point]. `CCC(c1nnnn1Cc1ccco1)N(Cc1cc2cc(C)cc(C)c2[nH]c1=O)CC1CCCO1` (stereo not drawn) was tested, and the Potency was inconclusive: 28.2 µM [inhibitor, partial curve, poor fit]. `O=C1CC(Sc2nnnn2-c2ccccc2)C(=O)N1c1cccc(Cl)c1` (stereo not drawn) was tested, and the Potency was inconclusive: 35.5 µM [inhibitor, partial curve, poor fit]. `Cc1nn(-c2ccccc2)c(N)c1Sc1cccc([N+](=O)[O-])c1` was tested, and the Potency was inconclusive: 50.1 µM [inhibitor, single point]. `CCOc1ccccc1/C=N/n1c(C2CCCCC2)n[nH]c1=S` was tested, and the Potency was inconclusive: 12.6 µM [inhibitor, partial curve, poor fit]. With `CC(NS(=O)(=O)c1ccc(Cl)c(Cl)c1)C(=O)OCC(=O)Nc1ccc2c(c1)OCO2` (stereo not drawn) the Potency was “inactive”. `Cc1ccc(S(=O)(=O)/N=C2/NC(=O)/C(=C/c3ccc(Br)o3)S2)cc1` was tested, and the Potency was “inactive”. With `CCOC(=O)N(c1ccccc1)P1(=S)OCCO1` the Potency was inconclusive: 20 µM [inhibitor, partial curve, poor fit]. With `FC(F)(F)c1ccccc1-n1c(-c2cnccn2)n[nH]c1=S` the Potency was inconclusive: 6.31 µM [inhibitor, full curve]. In the case of `COc1cc(S(=O)(=O)NC2CCCCC2)ccc1F`, the Potency is reported as inconclusive: 1 µM [inhibitor, full curve, poor fit]. In the case of `Cc1ccc(NC(=O)c2cc(-c3ccc(C)o3)nc3ccccc23)nc1`, the Potency is reported as inconclusive: 25.1 µM [inhibitor, partial curve]. With `CC[n+]1ccc(/C=C/c2ccc(N(C)C)cc2)c2ccccc21` the Potency was inconclusive: 28.2 µM [inhibitor, partial curve]. `CCOc1cccc(Nc2nn(-c3ccc(OC(F)(F)F)cc3)nc2C(C)=O)c1` was tested, and the Potency was “inactive”. In the case of `Cc1ccc(S(=O)(=O)NCc2cccnc2)s1`, the Potency is reported as inconclusive: 50.1 µM [inhibitor, single point]. In the case of `Fc1cccc(/C=C2\CCCC3=C2NC(=S)NC3c2cccc(F)c2)c1` (stereo not drawn), the Potency is reported as inconclusive: 35.5 µM [inhibitor, partial curve, poor fit]. With `Cc1nnc2sc(-c3ccc(NC(=O)c4ccc(-c5ccc(Cl)cc5Cl)o4)cc3)nn12` the Potency was inconclusive: 50.1 µM [inhibitor, single point]. `Cc1cc(N2CCN(c3cccc(C)c3C)CC2)n2cnnc2n1` was tested, and the Potency was “inactive”. `Oc1ccc(F)c2cccnc12` was tested, and the Potency was inconclusive: 14.1 µM [inhibitor, partial curve]. With `C=CCn1c(SCC(=O)O)nnc1-c1ccc(C(C)(C)C)cc1` the Potency was inconclusive: 25.1 µM [inhibitor, partial curve]. In the case of `Cc1cc(C(F)(F)F)c(C#N)c(SCC(=O)Nc2nc3ccccc3s2)n1`, the Potency is reported as “inactive”. In the case of `O=C(c1ccc(F)cc1)c1cc2ccc(O)cc2oc1=O`, the Potency is reported as inconclusive: 14.1 µM [inhibitor, partial curve, poor fit]. In the case of `C=CCOc1ccc(CNn2cn[nH]c2=S)cc1OC`, the Potency is reported as inconclusive: 15.8 µM [inhibitor, partial curve, poor fit]. With `CCOC(=O)c1cccc(NC(=O)CCCn2nc(C)c3c(C)n(-c4ccccc4)nc3c2=O)c1` the Potency was “inactive”. With `O=C(C1CCC(N2C(=O)C3CC=CCC3C2=O)CC1)N1CCCCC1` (stereo not drawn) the Potency was inconclusive: 44.7 µM [inhibitor, single point]. `COc1nc2ccccc2nc1N1CCN(C)CC1` was tested, and the Potency was “inactive”. With `C=C1C[C@]2(O)[C@@]3(C)CCC(=O)C(C)(C)C3=C(O)C(=O)[C@@]2(C)[C@@H]2C(=O)O[C@@](C)(C(=O)OC)C(=O)[C@@]12C` the Potency was “inactive”. With `N#Cc1ccc(NC(=S)N2Cc3ccccc3-n3nncc3C2)cc1` the Potency was inconclusive: 25.1 µM [inhibitor, partial curve]. In the case of `S=c1[nH]c2ccccc2n1CCOc1ccccc1`, the Potency is reported as inconclusive: 1.41 µM [inhibitor, full curve, poor fit].
